# ± gives the standard deviation of the averaged measurements. This is one part of the list.
# System: PfAP2-LT AP2 domain (GST-tagged)
# Experiment: gcPBM binding intensity (ln(normalized median fluorescence intensity)); higher = stronger DNA binding
# How it was run: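 Each value is the highest Masliner-normalised natural-log median intensity across replicate spots of either orientation of a probe. The probes were primer-extended double-stranded 36-bp intergenic genomic sequences on an Agilent 4 × 180k array, alongside negative controls, exposed for 1 h to GST-tagged P. falciparum DNA-binding domains expressed in E. coli. Bound protein was picked up with Alexa488 anti-GST antibody and scanned at 488 nm.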
row,Sequence,gcPBM binding intensity (ln)
1,CACGCATACAGACACACACACACACCGATATATATA [CACACA_site8113],10.1 ± 0.37
2,AATATATTGTTTCCTGATATTAAATTCAATTTAATG [GTGCAC_negctrl_site22],8.48 ± 0.4
3,TAAAGAGAGACATCAACACACATACGTATGTATAGA [CACACA_site4896],9.02 ± 0.43
4,ATTTACCTATATATTTGTACTTACATAATGCTACCT [XGTACX_site2693],9.01 ± 0.54
5,TAAAAAAAAATATATAAACACACATATTTATATACA [CACACA_site8469],8.65 ± 0.47
6,TATATATATTTTGGCTGTACATCAGCGTATATTTTT [XGTACX_site3233],8.77 ± 0.49
7,AATAAATATATACATTGTACATATATAATATATATA [XGTACX_site1458],8.69 ± 0.47
8,TAAATTATAATATGCACACAAAATGTTATATTAAAA [CACACA_site376],8.76 ± 0.48
9,CCTATCCATGCATATACACACATATCTATTTATATA [CACACA_site6886],9.15 ± 0.39
10,AAAAAAAAACAAAAAAGTACAAAATAAAAATACGTT [XGTACX_site4566],8.9 ± 0.55
11,CTCTTCATATATAATTGTACACACAAAAACGACATT [XGTACX_site4287],9.09 ± 0.39
12,TTAATTTTTTTTTAAACACACATTTTTTTATTTAAG [CACACA_site2738],8.42 ± 0.54
13,TGAATAAAATATTATACACACATATGTATATAACAT [CACACA_site974],8.98 ± 0.35
14,TATTAATTTTTTTTTTTTTTTTTTTTTTTTTTTTTT [CACACA_negctrl_site1329],8.63 ± 0.18
15,GTTATAAATAATAAATAAATAATCAAATGAAGAATG [CACACA_negctrl_site653],8.78 ± 0.5
16,GAATATTAAATATTATCACACACATAATTATTTCCA [CACACA_site8730],9.07 ± 0.35
17,AAATAAAAAAAAGCCTGTACATGTTCATAAATTTTT [XGTACX_site7925],8.68 ± 0.45
18,ATATATATTTATAATCGTACGTACCTAACAATACAA [XGTACX_site4510],8.88 ± 0.35
19,TCCTTATTTCATATTTTTAAATAATACAAAAAAAAA [CACACA_negctrl_site773],7.95 ± 0.42
20,TTCTATTTATATGTGGGTACTAATTTTTTTTCTTTT [XGTACX_site7104],8.82 ± 0.47
21,CTTAAATTAATTTGGGTGCATATATTTGTACACATT [GTGCAC_site9948],8.81 ± 0.46
22,ATAAATATACCAATCGGTACACATTTATACAAACAA [XGTACX_site7484],8.92 ± 0.58

row,Sequence,gcPBM binding intensity (ln)
1,AGAATAAATATGTGGTGTTATAGTATTAATGTTAAT [TGCATGCA_negctrl_site62],8.76 ± 0.39
2,AATAAATACACATACACACACGACGCTAGTATATGT [CACACA_site6627],9.42 ± 0.23
3,GCTATAAATATAATCACACATAAATATATAATATAT [CACACA_site5144],8.73 ± 0.37
4,AGGAGGATAGTTCACAGTACCCAGGAAATCTGCGGA [XGTACX_site4928],8.72 ± 0.54
5,TATGCAATAAAATATACACACAATATACTTATATAT [CACACA_site7691],8.99 ± 0.38
6,TTTATTTTCCAAAGGGTGCACATAGTTAAAACGATA [GTGCAC_site9855],8.59 ± 0.47
7,TGATTAATTTTTAAATGTACTTAAAAATATACTTAT [XGTACX_site2872],8.21 ± 0.49
8,ATCTATATTCATAATACACACATTCTGTAGCATTAT [CACACA_site7058],9.13 ± 0.34
9,TATATCATATAAAACCGTACATACATACTTAATTGT [XGTACX_site6822],8.74 ± 0.46
10,AACAGGTCATAATTTACACACTATATATTTTATTAT [CACACA_site670],9.06 ± 0.35
11,TAACATATGGGACACACATGCAACTGTTATATGTCC [TGCATGCA_site959],9.12 ± 0.47
12,AGAAAACATATGTTTTGTACTTAAGAAAAAAAAAAA [XGTACX_site4231],8.58 ± 0.58
13,TTTTATATGTTATATACACACATATAAATAAATATA [CACACA_site7418],8.6 ± 0.33
14,AAAAAAAAATTAAAATGTACACATAAAAAAAAAAAA [XGTACX_site794],8.76 ± 0.57
15,AAAAATAAATAAATATGTACATATATACATATATAT [XGTACX_site5892],8.82 ± 0.45
16,AAAAAAAAAACACGCGCACACACACCCACCCACCCA [CACACA_site8689],10.365 ± 0.0071
17,ACTAATAAAGGTGTAATACACACTATAAAAAGGAAT [CACACA_site1124],9.14 ± 0.48
18,ATTATTCCATATTATTGTACTTTAATTTTTTAAACC [XGTACX_site2960],8.67 ± 0.44
19,TTTTTATCAACAAATAATACCATAACTCATATTTAT [CACACA_negctrl_site740],8.51 ± 0.48
20,TATAAAATTTTTAAAAGTACATATTTTACATAATAC [XGTACX_site2193],8.27 ± 0.45
21,GAGAGGTATCAAAAATGTACACATATATATATGTAT [XGTACX_site5611],8.94 ± 0.4
22,TTTTTTCTTTATTATGGTACGTATAAAAAAATTATA [XGTACX_site3433],8.2 ± 0.42

row,Sequence,gcPBM binding intensity (ln)
1,ATATATAATATATATTGTACAGGTATGTCTATAAAT [XGTACX_site2243],8.91 ± 0.28
2,ATATATTTTTTTTTTTCACACATTAGGATTCATATA [CACACA_site5758],8.76 ± 0.41
3,ATCATATGTATGGTGGTGCATTATGCATGAATTTTA [GTGCAC_site9798],8.89 ± 0.54
4,TAATAATATATAAAAAGTACATAACAAGATATGAAA [XGTACX_site4921],8.77 ± 0.47
5,AGAAAAAAATAATCATCACACACGGAGAATGTCCAA [CACACA_site2314],9.35 ± 0.25
6,GAAAATAACTAAAATTGTACAAAGAAACATATATTT [XGTACX_site6484],8.87 ± 0.48
7,GATATTCATTATATATGTACATATATGTAATATATA [XGTACX_site2210],8.77 ± 0.42
8,TATATATATCTGTATACACACATACAAATATGTAAA [CACACA_site5950],9.01 ± 0.28
9,TATTAAAGCACCCATGCACACACACTAAGGAAAAGA [CACACA_site7961],9.61 ± 0.35
10,TAAAGAATATTATAAACACACACTTTATAAAGAATT [CACACA_site114],8.89 ± 0.28
11,TGTTGATTTATCCTGTGTACGGATATATATCTTTCA [XGTACX_site7826],8.88 ± 0.42
12,TATATAAAGAAACACACACACACCTTATAATTATTA [CACACA_site4062],9.74 ± 0.18
13,GTAATTATACATATTACACACTCTCTTGATCTTTTT [CACACA_site7756],8.97 ± 0.46
14,TATATAAACCCACCTACACACACAACGTAAATGCAT [CACACA_site8702],9.62 ± 0.23
15,ATTATTATATTCAAATGTACTTAATAAACATTTTAA [XGTACX_site3023],8.31 ± 0.32
16,TTTATCTAAATATGTGTGCACTCGTTAATTTTTTTT,9.07 ± 0.52
17,ATATTTATAATTTTTTGTACACATTTTTTAAAGATA [XGTACX_site1784],8.61 ± 0.39
18,TATAAGAGAAGAAGAAAAAAAAGGTTTCTATAGAAA [XGTACX_negctrl_site421],8.4 ± 0.55
19,CATATAGTAATATATACACACACTTGTCTTGTAAAA [CACACA_site8238],9.15 ± 0.39
20,AAGAAGCATAAATGTACACACATATTTATATATTAA [CACACA_site1332],9.01 ± 0.43
21,ATAGTATACAGACACACACACACACGGATATAAATA [CACACA_site6914],10.1 ± 0.36
22,ATATATATATATATATGTACTAAATATTCATCCTTA [XGTACX_site6039],9.34 ± 0.6

row,Sequence,gcPBM binding intensity (ln)
1,AAGTTTAAGAAATAATTCATATTTACTTCCATCCTC [GTGCAC_negctrl_site494],8.54 ± 0.52
2,TACATATAAATATATAAATATAAATAAATAAATAAA [XGTACX_negctrl_site180],8.69 ± 0.45
3,TTTTTTTTTTTTTTTGCACACACATTGAATTATTAT [CACACA_site198],9.37 ± 0.45
4,AAATGGAAAAGGTGTACACAAAAAAAAGGGAAAAGC [CACACA_site5331],9.37 ± 0.5
5,TTACCAAAAACCTCAAGTACAAAAAATCCCTAATAT [XGTACX_site2313],8.71 ± 0.43
6,CTTTATATATAGTGTACACATTAAACAAATCTCAAT [CACACA_site5845],8.73 ± 0.36
7,TATATATGTATATATGGTACAGAATATTCTACATTA [XGTACX_site5077],8.66 ± 0.38
8,CAATCATTTTATTGTTGTACAGTAATTATGAATTCA [XGTACX_site7508],8.54 ± 0.41
9,TACCACATCGGTAAATGTACTTATAAAAAAAAAAAA [XGTACX_site3364],8.41 ± 0.41
10,CATCCACATATATGTACACACATATATATATATATA [CACACA_site2964],9.92 ± 0.21
11,TATAAACTTAATTTGAGTACTTAATAATAATTTTGT [XGTACX_site3730],8.37 ± 0.48
12,AATGGGTTAGCACATACACACCAATATATTATATAT [CACACA_site9011],8.98 ± 0.49
13,ATTTATGATATGTAAACATGCATAAAAATTTCAAAA [TGCATGCA_site858],8.56 ± 0.4
14,TATATATATATATTATGTACGTATCAGTTTGTATGT [XGTACX_site695],9.3 ± 0.17
15,ATTTTTAATATTATTACACACACTAAAAAAAAAAAA [CACACA_site1067],8.75 ± 0.38
16,TTATAAATTAGAGGTACACACAAAAAAAAAAAGAAA [CACACA_site6740],8.94 ± 0.48
17,CACGACATTAACAATACATGCAGAAAAACAAAAAAT [TGCATGCA_site689],9.12 ± 0.5
18,TTGGTACCTATAGATACACACATATATACATATATA [CACACA_site3402],8.97 ± 0.35
19,TAAGAGTAGTTATATACACACATGTATATTATAGTT [CACACA_site6815],9.03 ± 0.37
20,ACATTATATAAATATATACATATATATATATATAAA [GTGCAC_negctrl_site115],8.75 ± 0.45
21,TTTGATAAATGATACACACACAATATTTATAAAATA [CACACA_site7040],9.14 ± 0.38
22,CCCACGTATATTTTGTGTACATAAATAAATAAATAA [XGTACX_site4046],8.86 ± 0.45

# Reference: the supplement of paper PMC11417369
